27 molecules from PubChem BioAssay AID1963576 (National Center for Advancing Translational Sciences (NCATS), 2024) can be followed below.

The structures appear in SMILES notation. Out of some 46,000 compounds screened, about 60 (0.1%) were called active. Inconclusive results (about 3%) are left out. Calls come from the whole dose curve; as a rule, active = well fitted inhibition curve with a large enough effect; inconclusive = small, poorly fitted or top-dose-only effect; inactive = no such curve, though single readings can be large or run the other way. The list shows a part of the results.

A short description of the assay: Primary qHTS assay for Inhibitors of ovarian cancer metastasis using an organotypic tumor microenvironment (TME) model.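 For activity change, negative = inhibition: plate controls were DMSO wells for no effect and tomatine positive control wells for full effect.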 Note: nearly all actives have a fitted effect of over 65% in size. Particulars: SKOV3ip1-GFP adhesion/invasion on 3D omental model, fluorescence; series mostly up to 45.8 µM; activity change, negative = inhibition: at the top concentration. A digest of the protocol:
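Adhesion/invasion was scored as fixed GFP-labeled SKOV3ip1 cell counts (488/509 nm), normalized to DMSO and tomatine controls. Cancer cells in serum-free medium, with four compound doses (0.36-46 umol/L), sat 2 hr at RT then 16 hr at 37 C on a 48 hr fibroblast/mesothelial/ECM culture.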
(In general: qHTS replaces the single test concentration by a dilution series.)
`Cc1ccc(CSCc2ccc(C(=O)NCCc3ccc(Cl)cc3)o2)cc1`: the outcome was inactive.

`Cc1ccc(C)c(CN2C(=O)CSc3ccc(C(=O)NCc4ccc(F)cc4)cc32)c1`: the “activity change, negative = inhibition” value is inactive: 9.34%.

Regarding `O=C(CSC1=Nc2ccccc2N=C(c2ccc(F)cc2)C1)NCc1ccc(F)cc1`, the molecule was classed as inactive.

In the case of `Cc1oc2ncn(C)c(=O)c2c1C(=O)NC(C)c1ccccc1` (configuration not stated), the “activity change, negative = inhibition” value is inactive: 4.54%.

Consider `COc1ccccc1NCc1cccn1-c1nnc(N2CCOCC2)s1`, for which the “activity change, negative = inhibition” value was inactive: -2.15%.

Consider `CCOc1c(Cl)cc(Cl)cc1CNCCSc1nnnn1C`, for which the outcome was inactive.

In the case of `COc1ccc(N2CCN(C(CNC(=O)C(=O)NCCCN(C)C)c3cccnc3)CC2)cc1` (configuration not stated), the “activity change, negative = inhibition” value was inactive: -10.7%.

In the case of `O=C(c1cccc(Br)c1)N1CCN(Cc2cc(=O)n3nc(-c4ccccc4)sc3n2)CC1`, the “activity change, negative = inhibition” value was inactive: 8.93%.

Take `CCS(=O)(=O)N1CCc2cc(C(=O)Nc3cccc(Cl)c3C)ccc21`: the molecule was called inactive.

Consider `CCC(=O)N1c2nc(-c3ccco3)nn2C2(CCCCC2)[C@@H]2CCCC[C@@H]21`, for which the “activity change, negative = inhibition” value is inactive: 4.69%.

Consider `Cc1ccc(CSc2nc3cccnc3n2Cc2ccc(C(=O)NCCc3ccccc3)cc2)cc1`, for which the “activity change, negative = inhibition” value was inactive: -3.48%.

With `Cn1cnc(-c2cc3nccc(Oc4ccc(NC(=S)NC(=O)Cc5ccccc5)cc4F)c3s2)c1`, the “activity change, negative = inhibition” value is inactive: 7.56%.

On to `Cc1nc2c(-c3ccccc3)c(C)nn2c(C)c1CCC(=O)NCc1ccccc1Cl`, for which the call was inactive.

`O=C(Nc1cc2c(cc1C(=O)c1ccccc1Cl)OCCO2)c1ccc(Br)cc1`: the molecule was classed as inactive.

Regarding `FC(F)(F)c1cc(-c2ccccc2)nc2cc(-c3ccc(Br)cc3)nn12`, the molecule was called inactive.

With `COc1ccc(-c2cn3nc(N4CCCC(C(=O)Nc5ccc(C)c(C)c5)C4)sc3n2)cc1` (configuration not stated), the “activity change, negative = inhibition” value is inactive: 7.58%.

As for `Nc1nc(OCc2ccccc2)c2[nH]cnc2n1`, the “activity change, negative = inhibition” value was inactive: 2.45%.

For `Cc1ccc(-n2nnnc2CNC(=O)c2ccccc2S(C)(=O)=O)cc1C`, the “activity change, negative = inhibition” value is inactive: 0.344%.

Regarding `CCc1ccc2occ(CC(=O)Nc3c(C(=O)Nc4ccc(C)cc4)oc4ccccc34)c2c1`, the “activity change, negative = inhibition” value was inactive: -25%.

In the case of `COC(=O)c1c(SCC(=O)Nc2cc(C)cc(C)c2)[nH]c2ccccc2c1=O`, the call was inactive.

With `CCCn1cc(S(=O)(=O)c2cc(C)ccc2C)c(=O)c2cc(F)c(N3CCOCC3)cc21`, the “activity change, negative = inhibition” value is inactive: -3.39%.

Turning to `O=C(CCC(=O)OCC(=O)c1ccc(Cl)cc1)Nc1ccc(Oc2ccccc2)cc1`, the “activity change, negative = inhibition” value is inactive: -21%.

Regarding `Cc1cc(S(=O)(=O)Nc2ccc(-c3ccc(N4CCCCC4)nn3)cc2)c(C)cc1Cl`, the molecule was classed as inactive.

Consider `COc1cccc(-c2nn(C)c3sc(C(=O)NCCc4ccc(Cl)cc4)cc23)c1`, for which the call was inactive.

Take `COc1ccc(-n2nc(C(=O)Nc3ccccc3OC)c3c4ccccc4n(C)c3c2=O)cc1Cl`: the “activity change, negative = inhibition” value is inactive: 6.63%.

On to `CC(C)c1cnc2c(c1SCC(=O)Nc1ccccc1C(F)(F)F)c(=O)n(C)c(=O)n2C`, for which the “activity change, negative = inhibition” value was inactive: 8.4%.

For `Cc1ccc(CSc2nc(-c3cccs3)ccc2C#N)cc1`, the “activity change, negative = inhibition” value was inactive: -9.24%.
